The numbers were not newly measured in US5411733A (priority 1992, dated 1995), which cites them from elsewhere.

This data set concerns CMV. Particulars: cited from earlier work.

On to `C=CC[C@@H]1/C=C(\C)C[C@H](C)C[C@H](OC)[C@H]2O[C@@](O)(C(=O)C(=O)N3CCCC[C@H]3C(=O)O[C@H](/C(C)=C/[C@@H]3CC[C@@H](O)[C@H](OC)C3)[C@H](C)[C@@H](O)CC1=O)[C@H](C)C[C@@H]2OC` [FK 506], for which the “influence on CMV growth” value is “no or slight inhibitory influence on CMV growth”.
